# From publication PMC12136788
# Where a chain is given by its changes, count along the chain named. The list shows a part of the results.
# T1: UNK ZnF1-3 (human, UniProt Q9C0B0 31-174)
# T1 sequence: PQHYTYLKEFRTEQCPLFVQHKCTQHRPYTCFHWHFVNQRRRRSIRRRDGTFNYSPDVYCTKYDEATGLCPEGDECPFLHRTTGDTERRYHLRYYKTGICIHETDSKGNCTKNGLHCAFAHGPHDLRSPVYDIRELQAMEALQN
# B1: chr7:81084073:81084074:-_ENSMUSG00000025789_ENSMUST00000026896|mus_hu|motif|central (ssRNA)
# RNA: GGGAGUUCUACAGUCCGACGAUCAGGAUUUAAUCCAACAAACAUUUAUUGAGCAACUGCUGUGUGCUAUGCACCACGCCGGGUGCUGUGAUGGAUACAGAUGAAUAAAACACAGUCCCUGCCCUUGGCAAGCUUACAGUCUAACAACAGAGGAUUGAGCAUCA
# B2: chr2:210598762:210598763:+_ENSG00000078018_ENST00000392194|hu_mus|FALSE|FALSE (ssRNA)
# RNA: GGGAGUUCUACAGUCCGACGAUCGCAAAACAAUCACUAUACAGCAACAAAUACAUUUGCAAAUUGAUUGAAAAACAUGAACUAACUACAACCAGCCAUUGAAGAAAUACCUUUCUAUGGUAACAGGCUCUAGAAUUAUCAGAACAACAGAGGAUUGAGCAUCA
# B3: chr19:8913615:8913616:-_ENSMUSG00000071658_ENSMUST00000096259|mus_hu|mus_mus_mus_hu_False|8_68 (ssRNA)
# RNA: GGGAGUUCUACAGUCCGACGAUCAGGGUACCAAAACCUUCUGCCUGAAAUGGGUGCCCCACCCAGUCAGGACUUGGAGCUGAAAGUAUCUGAUGCAGAAGCAGUGACUAUACGAAAGGAGGCCCCUGAUGCUCAGAAGGCCAGCAACAGAGGAUUGAGCAUCA
# B4: chr5:32761720:32761721:+_ENSMUSG00000014956_ENSMUST00000015100|mus_mus|motif|central (ssRNA)
# RNA: GGGAGUUCUACAGUCCGACGAUCAGGCUGUCCACGUUCAGCUCCCCGUCCGCCAUCUUGUCGGCACCAGACUCUCCUCCCGGAAGCGUUAACAGGGCUUCUCGGCGGCGGCGGCGGCUCGGCGUUCUCACCUACGAGUCACGCCAACAGAGGAUUGAGCAUCA
# B5: chrX:98838459:98838460:+_ENSMUSG00000034160_ENSMUST00000044475|mus_hu|FALSE|FALSE (ssRNA)
# RNA: GGGAGUUCUACAGUCCGACGAUCCCCCAAAUUCGAAUAAGCUUCUGCCAGAAGGGGGUUCUGUUUAAUUGCCAGAGUGCUAAAGUGAGCAGAUCUGUCCAGCCUUCGACACUGGAAGUGUAUAGAUGAAAGUAAUAAAAGCACCAACAGAGGAUUGAGCAUCA
# B6: chr4:11888808:11888809:-_ENSMUSG00000049225_ENSMUST00000108301|mus_hu|FALSE|FALSE (ssRNA)
# RNA: GGGAGUUCUACAGUCCGACGAUCGUGCUUGUGCCACUGGAGAAUGGGUAGCAGUGCCCGGCCGCUCUCCACUGCAUUUUCAAUCUCUAGCAAAGUCUCAUGGGGUAACAAAGAGACAGCAAUAUAAUAAAAGAGUCUUUCACUCAACAGAGGAUUGAGCAUCA
# B7: chr11:77340908:77340909:-_ENSG00000074201_ENST00000525064|hu_hu|hu_hu_hu_mus_True|18_108 (ssRNA)
# RNA: GGGAGUUCUACAGUCCGACGAUCGUUUCGGUCCCUGGACACCGCAUGUAAACUAAUGGUGGGGUAUUCCAGUGAGAAUCCUAAUCCCGAACCAUCUAACCAGGACAGGCGGCUCUCAGCGAUGUAAAGCGUGCCGGUGCCGAGCAACAGAGGAUUGAGCAUCA
# B8: chr14:22137345:22137346:+_ENSMUSG00000039197_ENSMUST00000045376|mus_mus|motif|central (ssRNA)
# RNA: GGGAGUUCUACAGUCCGACGAUCAAAGAGGAUAUCAACAUAAGGCAUGACGUCCAUCAAGGCUUCCUUGAAGAACUGGCGGAUGAACGGUGCAGACAGGUUCAAAGUGAAGACCCUGUUGUUCUCGGCAGCAUAGCGAGCCACCAACAGAGGAUUGAGCAUCA
# B9: chr17:56552419:56552420:-_ENSMUSG00000013236_ENSMUST00000086828|mus_mus|mus_mus_mus_hu_False|98_108 (ssRNA)
# RNA: GGGAGUUCUACAGUCCGACGAUCAAAGUUUUUUUCUUAAAAAAAAAAUGAAAUGUCACGGGAUACAGUUACACUGAGAGUUUUAAAAGAAAGCUGGAUUCUGGUCCCAGCCCAGUGUCCCCAGGCUGCAGAGCGGGGAGGAGCCAACAGAGGAUUGAGCAUCA
# B10: chr7:140404665:140404666:+_ENSG00000090266_ENST00000247866|hu_hu|hu_hu_hu_mus_False|8_18 (ssRNA)
# RNA: GGGAGUUCUACAGUCCGACGAUCUGCUCCUACUCGUCCAGAGAGUUUACAGUGUCAGUCCUCGUCAUCAGGAGGGAUUCCCAGUUCUUCAUCUGUCCACUGUGAAGGAUCUGGAUACGGAAAGUGACCCAGCACCUCAUCCGACAACAGAGGAUUGAGCAUCA
# B11: chr11:77340908:77340909:-_ENSG00000074201_ENST00000525064|hu_hu|hu_hu_hu_mus_True|48_108 (ssRNA)
# RNA: B7 RNA with C87A, A90G, A117C
# B12: chr7:141445308:141445309:+_ENSG00000106028_ENST00000265304|hu_hu|hu_hu_hu_mus_False|48_48 (ssRNA)
# RNA: GGGAGUUCUACAGUCCGACGAUCUAUGAUUGUUGUUGCUUGCCGCCUCACAUUGUUUUUAUCCAUGUACUCGCCAUAGUCCACUUUCCCUUCCAAAAAUAUACGAGCCCCCUUUUUCACAUACUGAUAUGCCACAUCUCUGAGCAACAGAGGAUUGAGCAUCA
# B13: chr17:45726999:45727000:-_ENSMUSG00000023942_ENSMUST00000064889|mus_hu|FALSE|FALSE (ssRNA)
# RNA: GGGAGUUCUACAGUCCGACGAUCGUUGAAGAUGGCACUGAGAGAGUUCCGCUCAGGCAAGGGUGCUGCAGGGGCGGCUGACGCCUGGGCGUCCUUGCUCAGUUCAGCAGUGACCAAGGACACAUUCUGGGACAUGUCCAGGCGCAACAGAGGAUUGAGCAUCA
# B14: chrX:140365796:140365797:-_ENSMUSG00000031285_ENSMUST00000033642|mus_mus|mus_mus_mus_hu_False|1_108 (ssRNA)
# RNA: GGGAGUUCUACAGUCCGACGAUCCUUCUCAUUACUUAGUGCCUGCAAGGUUCUGGUUCGGUAGAAGCUACAGUGGGCGCUGUGAGUGGGGCUAGGCAACCCAUUCAUCCGGGAGCCUCGCAUGUUCCUGGAUGUCUUGUCUCGCAACAGAGGAUUGAGCAUCA
# B15: chr17:45747064:45747065:+_ENSG00000108424_ENST00000290158|hu_hu|hu_hu_hu_mus_True|38_58 (ssRNA)
# RNA: GGGAGUUCUACAGUCCGACGAUCGCCCACAGUCCACGCUGUUGUGUCUCGAACAACUACACUGGGGUCUUUCAUUAAUUCUAUUAGGGUGGGCAUAGCCUGUAUAACUAAUGGUUUCAGUUGAUUAGGCUCUGGUCCUUCCAACAACAGAGGAUUGAGCAUCA
# B16: chrX:98862621:98862622:+_ENSMUSG00000034160_ENSMUST00000044475|mus_hu|mus_mus_mus_hu_False|38_88 (ssRNA)
# RNA: GGGAGUUCUACAGUCCGACGAUCCUGCAUCUCCUUUAGAGUGUUUCCCAUAUUGGAGUAGGCAUCAGCAAAGGUAGGACUGAUUCGAAUAGCCUCCUUAUAGUGCAUCAGAGCUUCCUGCAGUUUUCCCUGCUGCUGCAGUACCAACAGAGGAUUGAGCAUCA
# B17: 155198394_155198514_4022_ncRNA_ENSMUSG00000029068_ENSMUST00000139066|mouse|control|control (ssRNA)
# RNA: GGGAGUUCUACAGUCCGACGAUCCCCAGGCAUACACUCAAAGAAACAACCAGAAUGACAGCCCACAAAGUCUUACAUAACAAGUGUCCUGAGAAUUGUUUAUUCAACCACGUAAAAUUUCUCUCCAGCUGGUGGCCUGCACUCCAACAGAGGAUUGAGCAUCA
# B18: 15627206_15627326_1502_CDS_ENSG00000118564_ENST00000412094|human|control|control (ssRNA)
# RNA: GGGAGUUCUACAGUCCGACGAUCUACACAAAGACUUUCAACAUUUCUAUGUCUCCAUUCCACAGUAUCUUCAAUAUCAGCCAAAUCUUCAGCAUCUAACAUCCACACAUAAGGAGAAGUGAAAUUCUCAGAAGAAACAGGCUUCAACAGAGGAUUGAGCAUCA
# B19: chr10:127827607:127827608:+_ENSMUSG00000014498_ENSMUST00000014642|mus_mus|FALSE|FALSE (ssRNA)
# RNA: GGGAGUUCUACAGUCCGACGAUCGCCGCAGUUCUUGAGCAGGCUGAAGCUGAAAGGACUGACGGCGUCCUUGGGUGGGAAAGGCUUCAUGGUGGAAAGGAUCAAGGCCAGGCAGUCUGCCACAUCUUUGUUAGGAGCGCAGGCCAACAGAGGAUUGAGCAUCA
# B20: chr12:48362563:48362564:+_ENSG00000134291_ENST00000256686|hu_hu|hu_hu_hu_mus_False|18_108 (ssRNA)
# RNA: GGGAGUUCUACAGUCCGACGAUCUCCGAAGGGUGAAUCGAUAGACCCUUGCGGGGGAAACUGUAAUCACUUUGUAUGGGGAAGGAAAAGAAACGCCAAAAACUUUCCAAAAAGCGGUUCAAAAAGCAGGCGGGAGGGGGAGGUCAACAGAGGAUUGAGCAUCA
# B21: chr4:17845017:17845018:+_ENSG00000109805_ENST00000514176|hu_mus|hu_hu_hu_mus_False|18_88 (ssRNA)
# RNA: GGGAGUUCUACAGUCCGACGAUCGCUCUCUUAACUUGUAUCUUCAUGAGAAAUUGGUGCAAGGUUAAGUUUACUUUUCUGUAGCGCAGCUGUUUUGGCUCGUCUGGGUAAUCUCAUUUCAUUUCUGGAUGGUGGUUCAUGAUCCAACAGAGGAUUGAGCAUCA
# B22: chr11:74504092:74504093:-_ENSMUSG00000020745_ENSMUST00000021091|mus_mus|motif|central (ssRNA)
# RNA: GGGAGUUCUACAGUCCGACGAUCCUUCCUUUUUAAAAACGGAAUAUGCCUCUUCAUAGCCAUUUGAACGAAGAUAAUCUGCGGUAGCUCGAUUUAGUUCAUCUCGUUGUCUCUGGGACAGCACCAUUUUGGCUGUAAUGUCAACAACAGAGGAUUGAGCAUCA
# Biological target: T1, UNK ZnF1-3
# Assay: nsRBNS (natural sequence RNA bind-n-seq); RBNS binding buffer (assumed for nsRBNS): 25 mM Tris pH 7.5, 150 mM KCl, 3 mM MgCl2, 0.01% Triton X-100, 500 ug/ml BSA, 20 U/ml SUPERase-In, 4 C; UNK is unkempt and MSI1 is Musashi-1; names of the RNAs are library labels; protein concentration not given here; high values mean tight binding
row,Binder,binding signal
1,B1,0.869 enrichment R
2,B2,1.46 enrichment R
3,B3,0.724 enrichment R
4,B4,0.73 enrichment R
5,B5,1.66 enrichment R
6,B6,1.34 enrichment R
7,B7,0.878 enrichment R
8,B8,0.97 enrichment R
9,B9,1.62 enrichment R
10,B10,1.24 enrichment R
11,B11,1.01 enrichment R
12,B12,0.768 enrichment R
13,B13,0.985 enrichment R
14,B14,0.759 enrichment R
15,B15,0.509 enrichment R
16,B16,1.03 enrichment R
17,B17,1.59 enrichment R
18,B18,0.778 enrichment R
19,B19,1.56 enrichment R
20,B20,2.16 enrichment R
21,B21,0.435 enrichment R
22,B22,0.591 enrichment R
